# Measured values: PubChem BioAssay (NCATS)
# Values joined by “and” are separate entries in the source; they are usually repeats but may differ in a detail not shown here. Equal entries are not always repeated. Inconclusive results, whose numbers are uncertain, are shown with a selection of clear calls. Where the call is inconclusive, the potency comes from a doubtful curve fit. Some structures have more than one record in an assay (separate samples or runs), and their calls can disagree. Active and inactive are the calls of the source. Unless noted, calls follow the shape of the dose curve; as a rule, active = well fitted curve in the direction sought with a large enough effect; inconclusive = small, poorly fitted or top-dose-only effect, or another doubt; inactive = no such curve, though single readings can be large; an effect the other way counts as inactive or inconclusive. *1 amine or outer side, *2 acyl side, *3 side chain or, on linkers, in order; H or OH if unused. Where a SMILES comes first, the peptide text is derived from it. Bridges are numbered along the chain shown (N, C = ends). Roman numbers before positions name the chains, in order. [ ]: non-standard residue; d: D form. Actinocin(9to1) = Cc1c2oc3c(C)ccc(C(=O)[*:1])c3nc-2c(C(=O)[*:2])c(N)c1=O; NMeV = CN[C@H](C(=O)O)C(C)C; Sar = CNCC(=O)O
# How the values were obtained:
# [1] = A High-Content qHTS Against Drug Library for the Identification of Small Molecules that Inhibit DYT1 Early Onset Primary Dystonia-Associated Cell Pathology (AID 1645839; calls by dose curve)
# In short: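 Cells were seeded and left for 24 h, then dosed with compound alongside tetracycline induction of mutant EGFP-TorsinA. They were incubated for 48 h, fixed in 4% paraformaldehyde, permeabilized and imaged for mislocalization (%pathology) and cell count.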
# [2] = target: Cytochrome P450 2D6 (Homo sapiens) (UniProt P10635); experiment: Cytochrome P450 family 2 subfamily D member 6 (CYP2D6) small molecule antagonists: luciferase biochemical (cell-free) qHTS assay (AID 1645840; active = well fitted curve in the direction sought with a large enough effect in the repeat runs; inconclusive = weak or mixed curves; inactive = no such curve, though single readings can be large; an effect the other way counts as inactive or inconclusive; also: nearly all actives have a fitted effect of over 55% in size)
# In short: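 P450-Glo CYP2D6 system: proluciferin substrate converted by enzyme to luciferin, read by luminescence proportional to activity. Enzyme-substrate mix with compound 10 min at room temperature, then NADPH regeneration 1 h before detection reagent.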
# [3] = target: Cytochrome P450 2C9 (Homo sapiens) (UniProt P11712); experiment: Cytochrome P450 family 2 subfamily C member 9 (CYP2C9) small molecule antagonists: luciferase biochemical (cell-free) qHTS assay (AID 1645842; active = well fitted curve in the direction sought with a large enough effect in the repeat runs; inconclusive = weak or mixed curves; inactive = no such curve, though single readings can be large; an effect the other way counts as inactive or inconclusive; also: nearly all actives have a fitted effect of over 55% in size)
# In short: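 P450-Glo CYP2C9 system: proluciferin substrate with enzyme in mix containing 0.4% BSA, 10 min at room temperature, then NADPH regeneration solution added and incubated 1 h at 37C. Detection reagent stopped reaction; luminescence read after 20 min as RLU.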
# [4] = Primary qHTS for inhibitors of nuclear receptor binding SET domain protein 2 (NSD2) in an isogenic RCH-ACV NSD2 p.E1099K mutant (9B) (AID 1645876); also: nearly all actives have a fitted effect of over 70% in size
# [5] = Primary qHTS for small molecule stabilizers of the endoplasmic reticulum resident proteome: Secreted ER Calcium Modulated Protein (SERCaMP) assay (AID 1508630); details: SH-SY5Y GLuc-SERCaMP (Gaussia luciferase released on ER calcium loss) secretion, thapsigargin, luminescence; series mostly up to 38.4 µM
# In short: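 The SH-SY5Y reporter protocol was run at 3 concentrations up to 38.3 uM (primary) or 11 concentrations (follow-up): 16 h compound, 100 nM thapsigargin for 4 h, then extracellular luciferase luminescence.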
# [6] = Primary qHTS for inhibitors of nuclear receptor binding SET domain protein 2 (NSD2) in an RCH-ACV wild type WT cells (2C) (AID 1645877); details: activity change, negative = cell killing: at 44.9 µM (top of the series) unless noted; also: nearly all actives have a fitted effect of over 70% in size
# [7] = target: Rap guanine nucleotide exchange factor 3 (Homo sapiens) (UniProt O95398); experiment: Confirmatory qHTS for antagonist of cAMP-regulated guanine nucleotide exchange factor 3 (EPAC1) (AID 1645880); also: nearly all actives have a fitted effect of over 55% in size
# In short: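 Released BODIPY-GDP fluoresces less than Rap1-bound BODIPY-GDP; the signal is followed at 480/540 nm at 5-min intervals over 30 min, after 5 min at room temperature. Reactions contain 100 nM EPAC1, 250 nM RAP1B-BODIPY-GDP and 50 uM GDP; results are normalized to ATA and DMSO.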
# [8] = target: Rap guanine nucleotide exchange factor 4 (Homo sapiens) (UniProt Q8WZA2); experiment: Confirmatory qHTS for antagonist of cAMP-regulated guanine nucleotide exchange factor 4 (EPAC2) (AID 1645885); also: nearly all actives have a fitted effect of over 25% in size
# [9] = NCATS anti-infectives library activity on the primary C. elegans qHTS viability assay (AID 1745855; calls by dose curve)
# In short: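 Titration-based screen in worms: eggs hatched overnight in M9, L1 larvae fed TOP10 capsules in S medium with compound, incubated 21 °C for 7 days; fluorescent objects gated by size and intensity at days 0, 3 and 7.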
# [10] = NCATS anti-infectives library activity on HEK293 viability as a counter-qHTS vs the C. elegans viability qHTS (AID 1745854)
# In short: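 CellTiter-Glo luminescence, read on a CCD imager, scored viability of HEK293 cells after 24 hr compound exposure at 37C. Library tested in several concentrations, 1:5 steps, up to 41.7 uM; digitonin served as control.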
# [11] = target: Cytochrome P450 3A4 (Homo sapiens) (UniProt P08684); experiment: Cytochrome P450 family 3 subfamily A member 4 (CYP3A4) small molecule antagonists: luciferase qHTS assay (AID 1645841; active = well fitted curve in the direction sought with a large enough effect in the repeat runs; inconclusive = weak or mixed curves; inactive = no such curve, though single readings can be large; an effect the other way counts as inactive or inconclusive; also: nearly all actives have a fitted effect of over 45% in size)
# In short: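 P450-Glo CYP3A4 enzyme with proluciferin substrate preincubated 10 min with compound at room temperature, then NADPH regeneration 1 h. Luciferin detection reagent added for 20 min; luminescence recorded. Ketoconazole positive control.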
# [12] = target: Nuclear receptor subfamily 1 group I member 3 (Homo sapiens) (UniProt Q14994); experiment: Primary qHTS for antagonist of constitutive androstane receptor (CAR) against the NCATS DSHEA and TCM libraries (AID 1794836)
# In short: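 HepG2-CYP2B6-hCAR cells, attached 5 h, given compounds plus CITCO agonist […], incubated 24 h at 37 C. Luciferase luminescence read, multiplexed with CellTiter-Fluor viability (Ex/Em 405/540 nm).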
# Potency is read from the fitted curve at half-maximal effect; tags tell the direction and shape of the fitted curve.
# UniProt P10635, sequence (P10635 whole entry, looked up): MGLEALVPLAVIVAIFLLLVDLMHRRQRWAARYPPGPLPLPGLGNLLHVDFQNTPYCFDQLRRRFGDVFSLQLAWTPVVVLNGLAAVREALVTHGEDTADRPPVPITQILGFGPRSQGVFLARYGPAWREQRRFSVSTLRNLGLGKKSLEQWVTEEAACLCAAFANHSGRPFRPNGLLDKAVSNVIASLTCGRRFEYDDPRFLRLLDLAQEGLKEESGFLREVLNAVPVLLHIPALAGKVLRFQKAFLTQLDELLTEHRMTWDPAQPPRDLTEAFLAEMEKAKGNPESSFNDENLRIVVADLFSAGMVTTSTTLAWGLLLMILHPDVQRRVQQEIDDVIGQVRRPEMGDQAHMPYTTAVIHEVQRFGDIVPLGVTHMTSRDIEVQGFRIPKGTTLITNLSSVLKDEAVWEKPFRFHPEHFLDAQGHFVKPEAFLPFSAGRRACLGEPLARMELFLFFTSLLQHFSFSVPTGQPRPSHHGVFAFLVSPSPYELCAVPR
# UniProt P11712, sequence (P11712 whole entry, looked up): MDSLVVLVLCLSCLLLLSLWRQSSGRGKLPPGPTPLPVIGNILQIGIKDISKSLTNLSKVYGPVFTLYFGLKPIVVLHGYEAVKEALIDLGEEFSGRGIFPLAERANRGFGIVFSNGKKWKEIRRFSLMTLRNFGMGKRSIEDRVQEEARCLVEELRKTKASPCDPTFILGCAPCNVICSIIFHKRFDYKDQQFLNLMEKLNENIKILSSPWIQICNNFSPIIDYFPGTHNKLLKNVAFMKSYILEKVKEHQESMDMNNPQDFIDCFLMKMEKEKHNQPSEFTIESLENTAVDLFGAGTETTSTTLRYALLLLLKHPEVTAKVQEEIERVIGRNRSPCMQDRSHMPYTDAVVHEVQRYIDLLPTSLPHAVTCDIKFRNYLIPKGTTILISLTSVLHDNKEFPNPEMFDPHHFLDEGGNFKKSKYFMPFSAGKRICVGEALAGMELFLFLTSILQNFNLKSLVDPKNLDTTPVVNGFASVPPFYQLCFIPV
# UniProt P08684, sequence (P08684 whole entry, looked up): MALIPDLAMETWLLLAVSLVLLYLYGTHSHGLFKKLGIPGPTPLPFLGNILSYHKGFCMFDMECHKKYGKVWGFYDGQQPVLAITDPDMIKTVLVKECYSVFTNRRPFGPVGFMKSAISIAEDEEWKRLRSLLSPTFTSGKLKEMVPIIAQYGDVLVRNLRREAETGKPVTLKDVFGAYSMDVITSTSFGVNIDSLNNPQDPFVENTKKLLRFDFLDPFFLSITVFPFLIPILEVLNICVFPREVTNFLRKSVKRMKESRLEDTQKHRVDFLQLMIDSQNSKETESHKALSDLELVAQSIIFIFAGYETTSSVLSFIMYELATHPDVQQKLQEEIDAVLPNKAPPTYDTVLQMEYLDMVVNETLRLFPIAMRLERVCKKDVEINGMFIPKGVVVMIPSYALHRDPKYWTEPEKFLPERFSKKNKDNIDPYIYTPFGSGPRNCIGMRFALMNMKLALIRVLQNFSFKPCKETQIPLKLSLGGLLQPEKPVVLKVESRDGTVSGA
# UniProt O95398, sequence (O95398 whole entry, looked up): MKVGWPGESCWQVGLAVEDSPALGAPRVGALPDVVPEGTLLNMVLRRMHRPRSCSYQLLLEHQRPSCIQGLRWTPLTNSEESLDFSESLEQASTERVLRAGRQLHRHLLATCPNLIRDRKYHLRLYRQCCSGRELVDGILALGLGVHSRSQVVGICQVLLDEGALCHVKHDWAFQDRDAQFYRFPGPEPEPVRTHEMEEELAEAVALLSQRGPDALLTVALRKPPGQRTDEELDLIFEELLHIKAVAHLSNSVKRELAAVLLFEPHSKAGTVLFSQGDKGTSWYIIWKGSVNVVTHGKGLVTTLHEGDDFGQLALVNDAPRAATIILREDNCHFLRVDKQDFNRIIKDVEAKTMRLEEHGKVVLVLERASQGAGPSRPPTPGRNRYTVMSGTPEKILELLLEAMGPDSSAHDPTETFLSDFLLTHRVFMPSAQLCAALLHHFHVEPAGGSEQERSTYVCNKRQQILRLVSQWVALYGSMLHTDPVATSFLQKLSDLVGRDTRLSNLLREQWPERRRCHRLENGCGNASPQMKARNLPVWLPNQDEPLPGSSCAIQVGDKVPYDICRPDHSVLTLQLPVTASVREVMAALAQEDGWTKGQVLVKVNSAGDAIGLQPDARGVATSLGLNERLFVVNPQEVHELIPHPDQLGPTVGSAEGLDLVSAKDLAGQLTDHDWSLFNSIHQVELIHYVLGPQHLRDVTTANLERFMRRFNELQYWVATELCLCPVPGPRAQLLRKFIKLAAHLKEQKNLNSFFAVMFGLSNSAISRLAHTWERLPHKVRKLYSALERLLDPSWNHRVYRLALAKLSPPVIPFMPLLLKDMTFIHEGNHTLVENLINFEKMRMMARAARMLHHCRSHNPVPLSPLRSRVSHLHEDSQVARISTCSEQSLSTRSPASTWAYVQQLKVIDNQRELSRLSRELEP
# UniProt Q8WZA2, sequence (Q8WZA2 whole entry, looked up): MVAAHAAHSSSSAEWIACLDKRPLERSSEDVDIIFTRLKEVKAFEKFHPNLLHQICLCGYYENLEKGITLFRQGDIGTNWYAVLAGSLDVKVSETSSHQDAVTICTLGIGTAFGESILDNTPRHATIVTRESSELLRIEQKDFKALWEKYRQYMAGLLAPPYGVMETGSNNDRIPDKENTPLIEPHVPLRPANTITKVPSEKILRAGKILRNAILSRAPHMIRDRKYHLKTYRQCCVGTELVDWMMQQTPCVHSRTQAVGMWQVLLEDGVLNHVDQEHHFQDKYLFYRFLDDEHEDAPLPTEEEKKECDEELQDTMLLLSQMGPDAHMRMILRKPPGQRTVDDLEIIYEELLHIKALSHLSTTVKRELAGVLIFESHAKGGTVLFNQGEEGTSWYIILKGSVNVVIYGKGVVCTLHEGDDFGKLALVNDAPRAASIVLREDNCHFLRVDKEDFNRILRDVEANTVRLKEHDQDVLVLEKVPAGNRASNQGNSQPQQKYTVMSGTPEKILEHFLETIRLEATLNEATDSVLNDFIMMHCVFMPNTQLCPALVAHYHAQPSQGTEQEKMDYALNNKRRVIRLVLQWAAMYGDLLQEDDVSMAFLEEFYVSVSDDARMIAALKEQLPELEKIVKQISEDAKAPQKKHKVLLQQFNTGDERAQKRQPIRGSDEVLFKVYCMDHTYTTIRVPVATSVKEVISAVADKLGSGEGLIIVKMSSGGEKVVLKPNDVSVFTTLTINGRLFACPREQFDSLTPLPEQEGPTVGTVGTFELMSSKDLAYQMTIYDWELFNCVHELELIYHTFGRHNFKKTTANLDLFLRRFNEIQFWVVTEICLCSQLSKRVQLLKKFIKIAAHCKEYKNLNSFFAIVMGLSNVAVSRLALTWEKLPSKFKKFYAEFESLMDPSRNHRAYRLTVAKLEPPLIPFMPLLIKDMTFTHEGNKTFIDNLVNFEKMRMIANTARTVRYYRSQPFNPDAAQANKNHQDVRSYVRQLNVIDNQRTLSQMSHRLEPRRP
# UniProt Q14994, sequence (Q14994 whole entry, looked up): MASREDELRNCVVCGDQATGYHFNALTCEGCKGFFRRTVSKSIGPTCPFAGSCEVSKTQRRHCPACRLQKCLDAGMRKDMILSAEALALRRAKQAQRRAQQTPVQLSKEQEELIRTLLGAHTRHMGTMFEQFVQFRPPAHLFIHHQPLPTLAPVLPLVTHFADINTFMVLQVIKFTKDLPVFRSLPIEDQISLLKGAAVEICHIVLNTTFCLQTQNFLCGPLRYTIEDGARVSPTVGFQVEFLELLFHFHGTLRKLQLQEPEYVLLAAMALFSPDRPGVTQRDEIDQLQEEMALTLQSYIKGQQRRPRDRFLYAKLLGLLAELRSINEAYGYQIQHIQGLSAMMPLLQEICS
compound,measurement,setting,value
COCc1c(C(C)C)nc(C(C)C)c(/C=C/[C@@H](O)C[C@@H](O)CC(=O)O)c1-c1ccc(F)cc1,Potency,[1],"inconclusive: 28.2 µM [inhibitor, single point]"
same,Potency,[2],inactive
same,Potency,[3],"inconclusive: 30.9 µM [inhibitor, partial curve, poor fit]"
O=C1c2ccccc2S(=O)(=O)N1CCCCN1CCN(c2ncccn2)CC1,Potency,[2],active: 0.871 µM
COc1ccc(-c2cc(C(F)F)nn2-c2ccc(S(N)(=O)=O)cc2)cc1F,Potency,[1],"inconclusive: 28.2 µM [inhibitor, partial curve, poor fit]"
same,Potency,[4],"inconclusive: 33.5 µM [inhibitor, single point]"
"Cc1c2oc3c(C)ccc(C(=O)N[C@@H]4C(=O)N[C@H](C(C)C)C(=O)N5CCC[C@H]5C(=O)N(C)CC(=O)N(C)[C@@H](C(C)C)C(=O)O[C@@H]4C)c3nc-2c(C(=O)N[C@@H]2C(=O)N[C@H](C(C)C)C(=O)N3CCC[C@H]3C(=O)N(C)CC(=O)N(C)[C@@H](C(C)C)C(=O)O[C@@H]2C)c(N)c1=O (I: T[dV]P[Sar][NMeV] / II: T[dV]P[Sar][NMeV]; ester I:1-I:C, II:1-II:C; linker I:N-II:N via Actinocin(9to1))",Potency,[5],inactive
same,Potency,[6],inactive
O=C1NCN(c2ccccc2)C12CCN(CCCC(c1ccc(F)cc1)c1ccc(F)cc1)CC2,Potency,[5],"inconclusive: 25.1 µM [inhibitor, single point]"
same,Potency,[6],active: 2.66 µM
same,Potency,[7],"inconclusive: 19.7 µM [inhibitor, partial curve, poor fit]"
same,Potency,[8],"inconclusive: 13.9 µM [inhibitor, partial curve]"
CN(C)CC/C=C1\c2ccccc2Sc2ccc(Cl)cc21,Potency,[1],active: 12.6 µM
same,Potency,[4],"inconclusive: 33.5 µM [inhibitor, single point]"
COC(=O)[C@@H]1[C@H]2C[C@H]3c4[nH]c5ccccc5c4CCN3C[C@@H]2CC[C@@H]1O,Potency,[1],"inconclusive: 35.5 µM [inhibitor, single point]"
same,Potency,[4],"inconclusive: 23.7 µM [inhibitor, single point]"
same,Potency,[6],"inconclusive: 33.5 µM [inhibitor, single point]"
C=CCc1ccc(O)c(OC)c1,Potency,[1],inactive
same,Potency,[3],"inconclusive: 24.5 µM [inhibitor, single point]"
same,Potency,[4],inactive
Cn1cnc([N+](=O)[O-])c1Sc1ncnc2nc[nH]c12,Potency,[1],active: 35.5 µM
CN(C)CCCN1c2ccccc2Sc2ccc(Cl)cc21,Potency,[1],"inconclusive: 11.2 µM [inhibitor, partial curve, poor fit]"
same,Potency,[9],"inconclusive: 25.8 µM [inhibitor, single point]"
Cc1c(C(C)C)c(=O)n(-c2ccccc2)n1C,Potency,[1],inactive
CCc1cccc(CC)c1NC(=O)N1Cc2[nH]nc(NC(=O)c3ccc(N4CCN(C)CC4)cc3)c2C1,Potency,[5],inactive
same,Potency,[10],"inconclusive: 2.24 µM [cytotoxic, full curve]"
CCCCCCCCCCCCCCCC[N+](C)(C)Cc1ccccc1,Potency,[1],active: 22.4 µM
same,Potency,[3],"inconclusive: 38.9 µM [inhibitor, single point]"
same,Potency,[4],active: 0.75 µM
same,Potency,[6],active: 0.668 µM
CCCCCN=C(N)N/N=C/c1c[nH]c2ccc(OC)cc12,Potency,[1],"inconclusive: 25.1 µM [inhibitor, single point]"
same,Potency,[6],active: 4.73 µM
same,Potency,[10],"inconclusive: 31.6 µM [cytotoxic, single point]"
O=[N+]([O-])c1cccc(S(=O)(=O)NCCNS(=O)(=O)c2cccc([N+](=O)[O-])c2)c1,Potency,[1],inactive
same,Potency,[3],"inconclusive: 3.09 µM [inhibitor, full curve]"
CCN(CCCCOC(=O)c1ccc(OC)c(OC)c1)C(C)Cc1ccc(OC)cc1 (stereo not given),Potency,[1],inactive
same,Potency,[3],inactive
same,Potency,[4],"inconclusive: 29.9 µM [inhibitor, single point]"
same,Potency,[6],"inconclusive: 16.8 µM [inhibitor, partial curve]"
CCN(CC)C(=O)/C(C#N)=C/c1cc(O)c(O)c([N+](=O)[O-])c1,Potency,[1],"inconclusive: 11.2 µM [inhibitor, partial curve]"
same,Potency,[11],"inconclusive: 9.77 µM [falling, partial curve]"
same,Potency,[4],"inconclusive: 33.5 µM [inhibitor, single point]"
CCC(C)(C)C(=O)O[C@H]1C[C@@H](C)C=C2C=C[C@H](C)[C@H](CC[C@@H]3C[C@@H](O)CC(=O)O3)[C@H]21,Potency,[1],"inconclusive: 22.4 µM [inhibitor, partial curve, poor fit]"
same,Potency,[4],"inconclusive: 23.7 µM [inhibitor, partial curve, poor fit]"
same,Potency,[6],"inconclusive: 29.9 µM [inhibitor, single point] and active: 8.33 µM"
O=c1ccc2ccccc2o1,Potency,[5],"inconclusive: 4.47 µM [inhibitor, full curve]"
same,Potency,[9],inactive
same,Potency,[12],"inconclusive: 3.16 µM [inhibitor, full curve]"
Cc1ccccc1C(=O)Nc1ccc(C(=O)N2CCCC(O)c3cc(Cl)ccc32)c(C)c1 (stereo not given),Potency,[1],"inconclusive: 10 µM [inhibitor, partial curve, poor fit]"
same,Potency,[2],"inconclusive: 19.5 µM [inhibitor, partial curve, poor fit]"
